Assay results from PubChem BioAssay (Tox21).
Values joined by “and” are separate entries in the source; they are usually repeats but may differ in a detail not shown here. Equal values may be shown once. This list was built around the results that the source calls inconclusive (neither active nor inactive); the mix of calls is not that of the screen. For some of these results: A potency beside an inconclusive call is a rough fit, not a confirmed value. Active and inactive are the calls of the source. Unless noted, calls follow the shape of the dose curve; as a rule, active = well fitted curve in the direction sought with a large enough effect in the repeat runs; inconclusive = weak or mixed curves; inactive = no such curve, though single readings can be large; an effect the other way counts as inactive or inconclusive.

What was measured:
[1] = qHTS assay to identify small molecule antagonists of the estrogen receptor alpha (ER-alpha) signaling pathway using the BG1 cell line - cell viability counter screen (AID 743081); conditions: BG1Luc4E2 viability, CellTiter-Fluor, 22 h; activity change, negative = cytotoxicity: at 70.3 µM (top of the series);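 also: compound given together with 17beta-estradiol as the ER stimulus; nearly all actives have a fitted effect of over 45% in size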; also: potency is read from the fitted curve at half-maximal effect
[2] = target: Aryl hydrocarbon receptor (Homo sapiens) (UniProt P35869); assay: qHTS assay to identify small molecule that activate the aryl hydrocarbon receptor (AhR) signaling pathway (AID 743085); also: nearly all actives have a fitted effect of over 15% in size; also: potency is read from the fitted curve at half-maximal effect;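 as to activation: HG2L7.5c1 human HepG2 liver cells with stably integrated DRE-driven firefly reporter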
Sequence of UniProt P35869 (P35869 whole entry, looked up): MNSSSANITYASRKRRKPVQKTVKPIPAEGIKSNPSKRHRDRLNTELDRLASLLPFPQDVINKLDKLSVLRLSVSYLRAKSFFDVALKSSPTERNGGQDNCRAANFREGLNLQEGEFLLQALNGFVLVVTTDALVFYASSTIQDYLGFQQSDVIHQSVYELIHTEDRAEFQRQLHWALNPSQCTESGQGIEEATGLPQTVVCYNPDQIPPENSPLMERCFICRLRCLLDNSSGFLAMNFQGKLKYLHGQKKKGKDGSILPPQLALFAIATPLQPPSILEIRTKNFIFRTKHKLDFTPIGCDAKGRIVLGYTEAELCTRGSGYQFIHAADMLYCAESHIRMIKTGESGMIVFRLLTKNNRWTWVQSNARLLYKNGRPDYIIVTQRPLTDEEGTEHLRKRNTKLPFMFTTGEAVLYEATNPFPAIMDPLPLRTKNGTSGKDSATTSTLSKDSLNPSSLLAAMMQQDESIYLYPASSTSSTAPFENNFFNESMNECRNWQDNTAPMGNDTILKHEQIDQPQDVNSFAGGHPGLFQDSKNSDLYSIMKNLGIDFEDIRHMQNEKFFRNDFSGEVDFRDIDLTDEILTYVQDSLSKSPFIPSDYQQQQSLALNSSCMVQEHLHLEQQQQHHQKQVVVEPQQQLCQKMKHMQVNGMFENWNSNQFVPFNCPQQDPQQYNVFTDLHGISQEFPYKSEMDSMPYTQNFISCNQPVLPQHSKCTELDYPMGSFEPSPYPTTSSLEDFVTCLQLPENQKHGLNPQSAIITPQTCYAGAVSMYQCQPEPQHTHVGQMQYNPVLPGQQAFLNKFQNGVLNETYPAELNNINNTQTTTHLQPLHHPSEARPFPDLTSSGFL
Procedure, shortened: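 A multiplexed format paired cell viability (CellTiter-Fluor fluorescence) with AhR-dependent luciferase output (ONE-Glo luminescence) in the same wells of HepG2 DRE-luc cells after 24 h compound exposure at 37C.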

[3] = qHTS assay to identify aromatase inhibitors - cell viability counter screen (AID 743084); conditions: MCF-7 aro ERE viability, CellTiter-Fluor, 24 h; activity change, negative = cytotoxicity: at 70.3 µM (top of the series);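 also: cells stimulated with testosterone during compound exposure; nearly all actives have a fitted effect of over 55% in size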; also: potency is read from the fitted curve at half-maximal effect
[4] = target: Peroxisome proliferator-activated receptor gamma (Homo sapiens) (UniProt P37231); assay: qHTS assay to identify small molecule antagonists of the peroxisome proliferator-activated receptor gamma (PPARg) signaling pathway (AID 743191; calls by dose curve; also: nearly all actives have a fitted effect of over 30% in size; also: potency is read from the fitted curve at half-maximal effect); conditions: HEK293H PPARg-UAS-bla, beta-lactamase ratio, antagonist, 17 h
Sequence of UniProt P37231 (P37231 whole entry, looked up): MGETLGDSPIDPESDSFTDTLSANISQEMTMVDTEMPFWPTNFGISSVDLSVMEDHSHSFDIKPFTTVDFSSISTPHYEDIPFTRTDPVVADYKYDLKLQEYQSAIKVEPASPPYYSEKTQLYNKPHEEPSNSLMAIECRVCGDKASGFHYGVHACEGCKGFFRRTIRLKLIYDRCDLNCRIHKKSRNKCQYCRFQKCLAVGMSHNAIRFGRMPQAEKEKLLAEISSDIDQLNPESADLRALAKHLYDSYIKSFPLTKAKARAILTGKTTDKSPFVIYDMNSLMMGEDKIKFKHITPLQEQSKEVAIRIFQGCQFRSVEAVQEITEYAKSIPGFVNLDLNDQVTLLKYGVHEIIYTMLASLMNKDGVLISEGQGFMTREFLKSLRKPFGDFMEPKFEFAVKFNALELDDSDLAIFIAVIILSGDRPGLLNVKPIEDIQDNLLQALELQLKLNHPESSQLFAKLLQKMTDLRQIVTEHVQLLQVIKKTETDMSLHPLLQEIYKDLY
Procedure, shortened: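 Beta-lactamase reporter under UAS control in HEK293H PPARg-bla cells; compound treatment 17 h at 37C. Read-out: fluorescence intensity after 1 h room-temperature incubation with LiveBLAzer B/G FRET substrate.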

[5] = target: Aromatase (Homo sapiens) (UniProt P11511); assay: qHTS assay to identify aromatase inhibitors (AID 743083); conditions: MCF-7 aro ERE, testosterone-driven ERE luciferase, 24 h; activity, negative = inhibition: at 70.3 µM (top of the series); also: nearly all actives have a fitted effect of over 55% in size; also: potency is read from the fitted curve at half-maximal effect
Sequence of UniProt P11511 (P11511 whole entry, looked up): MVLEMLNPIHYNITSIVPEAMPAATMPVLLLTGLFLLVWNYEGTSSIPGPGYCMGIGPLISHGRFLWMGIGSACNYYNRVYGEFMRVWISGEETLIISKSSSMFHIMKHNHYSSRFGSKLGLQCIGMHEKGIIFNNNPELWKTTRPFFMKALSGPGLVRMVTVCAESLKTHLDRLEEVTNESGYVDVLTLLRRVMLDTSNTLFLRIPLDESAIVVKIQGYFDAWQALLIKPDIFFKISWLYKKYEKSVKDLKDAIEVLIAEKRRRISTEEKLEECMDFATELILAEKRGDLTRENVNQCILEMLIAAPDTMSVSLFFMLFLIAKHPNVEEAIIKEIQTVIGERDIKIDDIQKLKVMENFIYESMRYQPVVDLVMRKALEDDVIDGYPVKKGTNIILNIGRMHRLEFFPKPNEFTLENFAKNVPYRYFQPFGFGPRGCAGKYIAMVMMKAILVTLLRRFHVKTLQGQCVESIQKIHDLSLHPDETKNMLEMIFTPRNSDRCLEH

[6] = qHTS assay to identify small molecule that activate the aryl hydrocarbon receptor (AhR) signaling pathway - cell viability counter screen (AID 743086); also: nearly all actives have a fitted effect of over 45% in size; also: potency is read from the fitted curve at half-maximal effect
Procedure, shortened: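 Cytotoxicity counter screen: CellTiter-Fluor signal (30 min, 37 C) in 4000 HepG2 cells/well carrying the DRE-luciferase reporter, following 24 h compound exposure at 37 C.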

[7] = qHTS assay to identify small molecule antagonists of the peroxisome proliferator-activated receptor gamma (PPARg) signaling pathway - cell viability counter screen (AID 743194); conditions: PPARg-bla HEK293H viability, CellTiter-Glo luminescence, 17 h, co-treated with 50 nM rosiglitazone; activity change, negative = cytotoxicity: at 62.6 µM (top of the series) unless noted; also: nearly all actives have a fitted effect of over 55% in size; also: potency is read from the fitted curve at half-maximal effect
Procedure, shortened: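 Viability was measured as CellTiter-Glo luminescence in GeneBLAzer PPARg UAS-bla HEK293H cells. These cells had been exposed 17 h at 37 C to compounds together with rosiglitazone at 50 nM final, with the beta-lactamase readout taken in the same wells.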

[8] = target: Peroxisome proliferator-activated receptor gamma (Homo sapiens) (UniProt P37231); assay: qHTS assay to identify small molecule agonists of the peroxisome proliferator-activated receptor gamma (PPARg) signaling pathway (AID 743094; active = well fitted activation curve with a large enough effect in the signal ratio in the repeat runs, not every such curve was filed as active; inconclusive = weak or mixed curves, or effect the other way; inactive = no such curve, though single readings can be large or run the other way; the % refers to the signal ratio); conditions: HEK293H PPARg-UAS-bla, beta-lactamase FRET ratio, 17 h; activation: at 57 µM (top of the series) unless noted
Procedure, shortened: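 Stably transfected HEK293H cells (GeneBLAzer PPARg UAS-bla) were incubated with test substances for 17 h at 37C after a 5 h pre-incubation; beta-lactamase activity was then detected by FRET substrate fluorescence.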

[9] = ratio activity, negative = inhibition: at 62.6 µM (top of the series) unless noted
% is scaled to controls: 0 for no effect and ±100 for the full control effect; tags tell the direction and shape of the fitted curve or compound fluorescence and quenching.

COCCCOc1ccnc(CS(=O)c2nc3ccccc3[nH]2)c1C (stereo unspecified)
Potency [1]: inconclusive: 24.2 µM [cytotoxic, partial curve]
Potency [2]: active: 9.44 µM and active: 3.05 µM

C=CC(C)(O)CC/C=C(\C)CCC=C(C)C (stereo unspecified)
Potency [1]: inactive
Potency [3]: inconclusive: 77 µM [cytotoxic, single point]
ratio activity, negative = inhibition [4, 9]: inconclusive: 21.5%

O=[N+]([O-])c1ccc(O)cc1C(F)(F)F
Potency [1]: inconclusive: 68.6 µM [cytotoxic]
Potency [5]: inconclusive: 68.6 µM [inhibitor, single point]
Potency [3]: active: 68.6 µM
Potency [6]: active: 61.1 µM
Potency [7]: active: 38.9 µM

CCOc1ccc(N=Nc2ccc(/C=C/c3ccc(N=Nc4ccc(OCC)cc4)cc3S(=O)(=O)O)c(S(=O)(=O)O)c2)cc1
Potency [1]: inconclusive: 53.6 µM [cytotoxic, single point]
Potency [3]: active: 26.9 µM
Potency [4, 9]: inactive

COc1c(Cl)ccc(Cl)c1C(=O)O
ratio activity, negative = inhibition ([4]; at 62.6 µM (top of the series)): inactive: 15.4%

O=C(CCNNC(=O)c1ccncc1)NCc1ccccc1
Potency [5]: inactive
Potency [2]: inconclusive: 29.8 µM [activator, partial curve]

CC(C)COC(=O)/C=C/c1ccccc1
Potency [5]: inconclusive: 61.1 µM [inhibitor]
Potency [3]: inconclusive: 68.6 µM [cytotoxic, single point]

CNCC[C@@H](Oc1ccccc1C)c1ccccc1
Potency [5]: inactive
Potency [6]: inconclusive: 29.8 µM [falling, partial curve, poor fit]
activation [8]: inconclusive: -11.3%
ratio activity, negative = inhibition [4, 9]: inconclusive: -20.2%

O=C1CCCCCCCCCCCC(=O)OCCO1
Potency [5]: active: 48.6 µM
Potency [3]: inconclusive: 68.6 µM [cytotoxic]
ratio activity, negative = inhibition [4, 9]: inconclusive: 24.4%

Cc1cccc(C)c1[N+](=O)[O-]
Potency [1]: inconclusive: 21.7 µM [rising, partial curve, poor fit]
Potency [4, 9]: inactive

CC1(C)S[C@@H]2[C@H](NC(=O)C(C(=O)O)c3ccccc3)C(=O)N2[C@H]1C(=O)O (stereo partly specified)
Potency [1]: inactive
ratio activity, negative = inhibition [4, 9]: inconclusive: 11.3%

CC(C)C[C@H]1C(=O)N2CCC[C@H]2[C@]2(O)O[C@](NC(=O)[C@@H]3C=C4c5cccc6[nH]c(Br)c(c56)C[C@H]4N(C)C3)(C(C)C)C(=O)N12
Potency [5]: inconclusive: 29.8 µM [inhibitor, partial curve] and inconclusive: 20.7 µM [inhibitor, partial curve, poor fit]
Potency [6]: inconclusive: 13 µM

OCCSc1ccccc1
Potency [5]: inactive

CCCC[P+](CCCC)(CCCC)CCCC
Potency [5]: inactive

CCCc1ccc(O)c(OC)c1
Potency [5]: inactive

COc1ccccc1OC(=O)Oc1ccccc1OC
Potency [5]: inactive
Potency [8]: inactive
Potency [4, 9]: inconclusive: 21.1 µM [inhibitor, partial curve, poor fit]

OCCc1ccncc1
Potency [5]: inconclusive: 54.5 µM [inhibitor, single point]

NNc1nncc2ccccc12
Potency [5]: inconclusive: 48.6 µM [inhibitor, single point]
Potency [2]: active: 9.69 µM
Potency [7]: inactive

CCN(CC)C(=O)c1ccc(O)c(OC)c1
Potency [1]: inactive
Potency [4, 9]: inactive
Potency [7]: inactive

CC(C)C[C@H](NC(=O)CNC(=O)[C@H](Cc1ccc(O)cc1)NC(=O)[C@H](CO)NC(=O)[C@H](Cc1c[nH]c2ccccc12)NC(=O)[C@H](Cc1cnc[nH]1)NC(=O)[C@@H]1CCC(=O)N1)C(=O)N[C@@H](CCCN=C(N)N)C(=O)N1CCC[C@H]1C(=O)NCC(N)=O (stereo in doubt)
Potency [1]: inconclusive: 13.3 µM [cytotoxic, single point]
activity change, negative = cytotoxicity [7]: inconclusive: -32.7% [cytotoxic]

CCOC(CN1CCN(CC(C)C(=O)c2ccccc2)CC1)c1ccccc1 (stereo unspecified)
Potency [5]: inconclusive: 26.6 µM [inhibitor, partial curve]
Potency [6]: inconclusive: 33.5 µM [falling, single point]
ratio activity, negative = inhibition [4, 9]: inconclusive: 2.05% [at 29.1 µM]

COc1ccc2c(c1)C(=O)N(CCc1ccc(S(=O)(=O)NC(=O)NC3CCCCC3)cc1)C(=O)C2(C)C
Potency [1]: inconclusive: 1.01 µM [rising, partial curve, poor fit]
Potency [4, 9]: inconclusive: 5.96 µM

NCCCCCC(=O)O
Potency [5]: inactive

Brc1c(NC2=NCCN2)ccc2nccnc12
Potency [5]: inactive

N=C(N)c1ccc(OCCCOc2ccc(C(=N)N)cc2)cc1
Potency [5]: inconclusive: 4.22 µM [inhibitor, partial curve, poor fit]
Potency [6]: inconclusive: 11.9 µM [falling, partial curve]
Potency [8]: inactive
Potency [4, 9]: inactive

Cc1ccc(/C=N/n2c(-c3ccccc3)csc2=S)cc1
activity, negative = inhibition [5]: inconclusive: -33.2% [inhibitor]
Potency [2]: active: 10.6 µM
activation [8]: inconclusive: -4.88%
Potency [4, 9]: active: 13.3 µM

CCCCCCCCN(C)C
Potency [1]: inactive
Potency [7]: inconclusive: 54.9 µM [rising, single point]

CC1(C)[C@@H]2CC[C@]3(C2)[C@@H]1C(=O)CCC3(C)C
Potency [5]: inconclusive: 54.5 µM [inhibitor, partial curve]
Potency [2]: inactive

OB(O)O
Potency [1]: inactive
ratio activity, negative = inhibition [4, 9]: inconclusive: 2.62%

O=C(NN1CCCC1)NS(=O)(=O)c1ccc(Cl)cc1
Potency [1]: inconclusive: 18.8 µM [cytotoxic, single point]
Potency [7]: inconclusive: 13.3 µM [rising, partial curve, poor fit]

O=C1O[C@H]([C@@H](O)CO)C(O)=C1O
Potency [1]: inconclusive: 1.68 µM [cytotoxic, full curve]
ratio activity, negative = inhibition ([4]; at 62.6 µM (top of the series)): inactive: 0.651%
ratio activity, negative = inhibition ([4]; at 81.1 µM (top of the series)): inactive: 8.08%
ratio activity, negative = inhibition [4, 9]: inconclusive: 19.3% and inconclusive: 23% and inconclusive: -4.45%
Potency [7]: inconclusive: 0.77 µM [cytotoxic, full curve, poor fit]
activity change, negative = cytotoxicity [7]: inconclusive: 33.2%

C=CCSSCCC
Potency [5]: inactive
Potency [8]: inactive

CC(C)OC(=O)CCC(=O)OC(C)C
Potency [5]: inactive
Potency [8]: inactive
ratio activity, negative = inhibition [4, 9]: inconclusive: 8.43%

CN(C)CCOC1=Cc2ccccc2Sc2ccc(Cl)cc21
Potency [5]: inconclusive: 26.6 µM [inhibitor, single point]
Potency [3]: inconclusive: 33.5 µM [cytotoxic, single point]
Potency [6]: inconclusive: 29.8 µM [falling, partial curve, poor fit]
activation [8]: inconclusive: -21%

NC[C@H]1O[C@H](O[C@H]2[C@H](O)[C@@H](O[C@H]3O[C@H](CO)[C@@H](O)[C@H](N)[C@H]3O)[C@H](N)C[C@@H]2N)[C@H](O)[C@@H](O)[C@@H]1O
Potency [1]: inactive
ratio activity, negative = inhibition [4, 9]: inconclusive: 10.3% [at 5.95 µM]

CCOC(=O)COC(=O)c1cc(Oc2ccc(C(F)(F)F)cc2Cl)ccc1[N+](=O)[O-]
Potency [5]: inconclusive: 68.6 µM [inhibitor, single point]
Potency [3]: inactive
Potency [4, 9]: inconclusive: 24.5 µM [inhibitor, partial curve]

CN1[C@@H]2CC[C@H]1CC(OC(=O)C(CO)c1ccccc1)C2 (stereo partly specified)
Potency [1]: inconclusive: 43.5 µM [cytotoxic, partial curve, poor fit]
Potency [7]: inactive

CNCCCCOc1ccccc1Cc1ccccc1
Potency [5]: inconclusive: 10.6 µM [inhibitor, full curve]
Potency [6]: inconclusive: 21.1 µM [falling, partial curve, poor fit]
Potency [4, 9]: inconclusive: 8.41 µM [inhibitor, full curve]

Cc1c(-c2ccccc2)oc2c(C(=O)OCCN3CCCCC3)cccc2c1=O
Potency [5]: inconclusive: 1.27 µM [inhibitor, partial curve, poor fit]
Potency [6]: inactive

Cc1nc2ccc(Cl)cc2[nH]1
Potency [5]: inactive

CCCCC(CC)C(=O)OCCOCCOCCOCCOC(=O)C(CC)CCCC (stereo unspecified)
Potency [5]: inconclusive: 30.6 µM [inhibitor, partial curve, poor fit]
Potency [3]: inconclusive: 68.6 µM [cytotoxic, partial curve, poor fit]
Potency [4, 9]: inconclusive: 1.95 µM [activator, full curve]

Cc1ccc2ccccc2c1[N+](=O)[O-]
Potency [5]: inconclusive: 24.3 µM [inhibitor, partial curve]
Potency [3]: inconclusive: 61.1 µM [cytotoxic, single point]
Potency [2]: inactive

CC(C)CC=O
Potency [1]: inactive
ratio activity, negative = inhibition [4, 9]: inconclusive: 7.04%
Potency [7]: inconclusive: 0.976 µM [rising, full curve, poor fit]

CC(C)CCCCCCCOC(=O)c1ccc(C(=O)OCCCCCCCC(C)C)c(C(=O)OCCCCCCCC(C)C)c1
Potency [5]: inactive
Potency [6]: inconclusive: 0.0048 µM [rising, full curve, poor fit]

C=C(C)c1cccc(C(C)(C)N=C=O)c1
Potency [1]: inactive
Potency [7]: inactive

CC(C)=CCC/C(C)=C/CC/C(C)=C/CO
Potency [5]: inconclusive: 68.6 µM [inhibitor, single point]
Potency [4, 9]: inconclusive: 61.6 µM

Cc1ccc(C(=O)C(C)CN2CCCCC2)cc1 (stereo unspecified)
Potency [3]: inactive

CCN1CCN(c2cc3c(cc2F)c(=O)c(C(=O)O)cn3C2CC2)CC1
Potency [3]: inconclusive: 13.3 µM [rising, partial curve, poor fit]

CC[N+](CC)(CC)CCOc1cccc(OCC[N+](CC)(CC)CC)c1OCC[N+](CC)(CC)CC
Potency [3]: inactive

C1CSCCS1
Potency [5]: inactive
Potency [8]: inactive
Potency [7]: inactive

CCCCCCCCCCCCOCCO
Potency [3]: inactive

O=S(=O)(O)c1cccc2ccccc12
Potency [3]: inconclusive: 77 µM [rising, partial curve, poor fit]

C[C@H]1C[C@H]2[C@@H]3CCC4=CC(=O)C=C[C@]4(C)[C@H]3C(=O)C[C@]2(C)[C@@]1(O)C(=O)CO
Potency [3]: inactive
